From article PMC10445733
These are yes or no findings as the source states them, for the method shown. In cells and extracts the contact can be indirect. Some results given as binding are weak or reduced against the parent protein; the word gives no strength. For part of these data: Where a sequence is shown, tags or fusion partners need not be part of it.

Amino acid sequences for entries named in this document (tags omitted).
UniProt A5D8V6: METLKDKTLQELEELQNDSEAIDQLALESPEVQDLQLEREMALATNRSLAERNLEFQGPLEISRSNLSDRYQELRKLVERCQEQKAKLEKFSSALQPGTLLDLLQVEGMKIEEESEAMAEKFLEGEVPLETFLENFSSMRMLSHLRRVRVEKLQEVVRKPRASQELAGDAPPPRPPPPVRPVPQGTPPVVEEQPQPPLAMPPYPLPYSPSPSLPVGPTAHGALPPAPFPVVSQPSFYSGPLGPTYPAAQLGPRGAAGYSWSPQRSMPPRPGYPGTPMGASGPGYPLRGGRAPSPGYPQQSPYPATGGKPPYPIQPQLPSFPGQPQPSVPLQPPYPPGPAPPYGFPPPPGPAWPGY

T1: HA–VPS37D (UniProt Q86XT2)
T1 sequence: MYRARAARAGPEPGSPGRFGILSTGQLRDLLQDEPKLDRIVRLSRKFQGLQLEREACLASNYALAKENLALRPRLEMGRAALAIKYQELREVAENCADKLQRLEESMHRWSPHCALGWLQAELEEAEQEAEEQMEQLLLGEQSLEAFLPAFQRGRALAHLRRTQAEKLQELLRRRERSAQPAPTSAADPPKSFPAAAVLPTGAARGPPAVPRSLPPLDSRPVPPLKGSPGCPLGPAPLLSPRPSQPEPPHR

B1: endogenous CEP55 (protein, UniProt Q53EZ4 1-464)
chain: MSSRSTKDLIKSKWGSKPSNSKSETTLEKLKGEIAHLKTSVDEITSGKGKLTDKERHRLLEKIRVLEAEKEKNAYQLTEKDKEIQRLRDQLKARYSTTTLLEQLEETTREGERREQVLKALSEEKDVLKQQLSAATSRIAELESKTNTLRLSQTVAPNCFNSSINNIHEMEIQLKDALEKNQQWLVYDQQREVYVKGLLAKIFELEKKTETAAHSLPQQTKKPESEGYLQEEKQKCYNDLLASAKKDLEVERQTITQLSFELSEFRRKYEETQKEVHNLNQLLYSQRRADVQHLEDDRHKTEKIQKLREENDIARGKLEEEKKRSEELLSQVQFLYTSLLKQQEEQTRVALLEQQMQACTLDFENEKLDRQHVQHQLHVILKELRKARNQITQLESLKQLHEFAITEPLVTFQGETENREKVAASPKSPTAALNESLVECPKCNIQYPATEHRDLLVHVEYCSK
B2: HA–UMAD1^M1 (V89P90F91/AAA) (protein, UniProt C9J7I0 1-137)
chain: MFHFFRKPPESKKPSVPETEADGFVLLGDTTDEQRMTARGKTSDIEANQPLETNKENSSSVTVSDPEMENKAGQTLENSSLMAELLSDAAATLAPHVLAVQGTITDLPDHLLSYDGSENLSRFWYDFTLENSVLCDS

How the values were obtained:
[1] = target: YFP–TSG101 (UniProt Q99816); assay: co-IP; GFP-trap magnetic agarose on lysates of HeLa cells stably expressing a YFP-tagged bait (YFP–TSG101 in HeLa^WT or HeLa^ΔUMAD1; YFP–UMAD1 in HeLa^ΔUMAD1), >12 h at 4°C; western blot for endogenous proteins; unfused YFP as control
[2] = target: YFP–UMAD1 (human) (UniProt C9J7I0); assay: as above
[3] = target: GST–TSG101 (UniProt Q99816); assay: pull-down; 293T cells co-transfected with GST–TSG101, Myc–VPS28, HA–UMAD1 (wild type or mutant) and one HA-tagged VPS37 subunit; lysate on glutathione–Sepharose beads 3 h at 4°C (50 mM Tris-HCl pH 7.4, 150 mM NaCl, 5 mM EDTA, 5% glycerol, Triton X-100); anti-HA blot; unfused GST as control
[4] = target: HA–VPS37B (UniProt Q9H9H4); assay: as above
[5] = target: HA–VPS37C (UniProt A5D8V6); assay: as above
[6] = target: T1, HA–VPS37D; assay: as above

| binding [1] | binding [2] | binding [3] | binding [4] | binding [5] | binding [6] | Binder |
| --- | --- | --- | --- | --- | --- | --- |
| binds | binds | – | – | – | – | B1 |
| – | – | no binding | no binding | no binding | no binding | B2 |
